Results reported in PubChem BioAssay AID485344 (National Center for Advancing Translational Sciences (NCATS), 2010).
The whole screen tested about 340,000 compounds, of which about 6,900 (2%) were called active. Rule as the data show it: active = inhibition above about 30%; inactive = below that, where a call was filed. Only a part is listed here, and it is no random draw. Where no call is shown, the source filed none.

Biological target: D(2) dopamine receptor (Homo sapiens) (UniProt P14416)
Assay: HTS Assay for Allosteric Antagonists of the Human D2 Dopamine Receptor: Primary Screen for Antagonists; also: 0% is about no effect
Conditions: HEK293 TREx D2 cells, calcium flux, dopamine EC80; at 10 µM; stronger effect = higher value
Outline: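 Cells plated overnight at 30 C with tetracycline; no-wash calcium dye, 30–90 min RT; 10 s baseline; compound pinned; 180 s read; EC80 dopamine added; another 180 s read.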

Sequence of UniProt P14416 (P14416 whole entry, looked up): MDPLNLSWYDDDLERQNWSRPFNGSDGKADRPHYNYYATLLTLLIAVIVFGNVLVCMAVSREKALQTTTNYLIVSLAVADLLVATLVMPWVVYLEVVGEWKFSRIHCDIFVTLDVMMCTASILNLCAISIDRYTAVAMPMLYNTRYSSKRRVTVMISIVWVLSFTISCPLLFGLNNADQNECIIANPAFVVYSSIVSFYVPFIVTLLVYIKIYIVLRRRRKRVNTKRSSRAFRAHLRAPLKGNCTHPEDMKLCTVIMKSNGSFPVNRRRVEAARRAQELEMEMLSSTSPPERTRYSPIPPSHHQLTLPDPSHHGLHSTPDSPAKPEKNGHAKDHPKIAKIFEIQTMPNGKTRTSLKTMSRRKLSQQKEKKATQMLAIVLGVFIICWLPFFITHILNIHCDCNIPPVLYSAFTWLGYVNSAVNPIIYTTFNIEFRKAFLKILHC

Row | Compound | inhibition
1 | CC1CCC(NC(=O)C2(C)Cc3ccccc3C(=O)N2Cc2ccccc2Cl)CC1 (stereo not given) | -13.8%
2 | Cc1cc(S(=O)(=O)Nc2cccc(-c3ccc(N4CCOCC4)nn3)c2)c(C)cc1Cl | 5.37%
3 | COc1cc(NC(=O)c2nc3cc(C)c(C)cc3n(C)c2=O)cc(OC)c1OC | 8.75%
4 | Cc1ccc(CCNC(=O)c2sc3ncccc3c2-n2cccc2)cc1 | 26%
5 | COc1ccc(N2CCN(S(=O)(=O)c3ccc(-c4cc(C(F)(F)F)on4)s3)CC2)cc1 | 0.0929%
6 | COc1cccc(NC(=O)CSc2nc(O)c(C/C=C/c3ccccc3)c(=O)[nH]2)c1 | -6.22%
7 | CCC(=O)Nc1cc(C(=O)NCc2ccc(C)cc2)ccc1S(=O)(=O)c1ccc(C)cc1 | -4.7%
8 | COc1ccc(C(=O)NC2(C(F)(F)F)C(=O)NC(C)=C2C#N)cc1 (stereo not given) | -6.18%
9 | Cc1ccc2c(c1)C(c1ccc(F)cc1)N(C(=O)C(C)C)CC(=O)N2 (stereo not given) | -18.3%
10 | CCc1cccc(NC(=O)Cn2nc(CC)n3c(cc4cc(C)ccc43)c2=O)c1 | -6.46%
11 | O=C(O)C1CCCCC1C(=O)Nc1ccccn1 (stereo not given) | active: 40.6%
12 | O=c1oc2ccc3ccccc3c2cc1-c1nnc(Nc2ccccc2)s1 | 3.35%
13 | COc1ccc(Cl)cc1NC(=O)C(C)n1nnc2sc3c(c2c1=O)CCCC3 (stereo not given) | 10.7%
14 | Cc1cc(C)cc(N2C(=O)CC(c3ccc(C(F)(F)F)cc3)C3=C2COC3=O)c1 (stereo not given) | 13.5%
15 | COc1ccc2c(C)c(CC(=O)NCCc3ccccc3)c(=O)oc2c1OC | 19.7%
16 | Cc1cccc(NC(=O)CSc2nc(-c3cccs3)cc(C(F)(F)F)c2C#N)c1 | -23.6%
17 | COc1ccc(Cn2c(SCC(=O)NCc3ccccc3)nc3ccccc32)cc1 | 0.135%
18 | CCCCn1c(Oc2cccc(C(=O)OC)c2)nc2c1c(=O)n(C)c(=O)n2C | 8.36%
19 | Cc1ccc(C(=O)NCC(=O)OCc2cc(=O)n3nc(C4CCCCC4)sc3n2)cc1 | -8.43%
20 | CCOc1ccc(NC(=O)Cn2nnc(C(=O)OC)c2C(=O)OC)cc1 | 20.1%
21 | CC[C@H](C)[C@H](NC(=O)[C@H](Cc1ccc(O)cc1)NC(=O)[C@@H](N)C(C)C)C(=O)N[C@@H](Cc1cnc[nH]1)C(=O)N1CCC[C@H]1C(=O)N[C@@H](Cc1ccccc1)C(=O)O | active: 33.8%
22 | CCN(CC)c1ccc(NC(=O)c2cc(CN3CCCC3)on2)c(C)c1 | -6.83%
23 | CCOc1cc(CNC(=O)c2ccc(NC(=O)c3nsc4ccccc34)cc2)ccc1OC | 22.3%
24 | CCOc1ccc(NC(=O)CC2C(=O)N(c3cccc(OC)c3)C(=O)N2C2CCCCC2)cc1 (stereo not given) | 8.41%
25 | Cn1c(=O)c2ccccc2n2c(CCC(=O)N3CCN(c4cccc(Cl)c4)CC3)nnc12 | 9.22%
